From patent publication US20220372160A1 (published 2022)

Molecular target: T1, recombinant human CD39 (human, UniProt P49961 38-478)
T1 chain: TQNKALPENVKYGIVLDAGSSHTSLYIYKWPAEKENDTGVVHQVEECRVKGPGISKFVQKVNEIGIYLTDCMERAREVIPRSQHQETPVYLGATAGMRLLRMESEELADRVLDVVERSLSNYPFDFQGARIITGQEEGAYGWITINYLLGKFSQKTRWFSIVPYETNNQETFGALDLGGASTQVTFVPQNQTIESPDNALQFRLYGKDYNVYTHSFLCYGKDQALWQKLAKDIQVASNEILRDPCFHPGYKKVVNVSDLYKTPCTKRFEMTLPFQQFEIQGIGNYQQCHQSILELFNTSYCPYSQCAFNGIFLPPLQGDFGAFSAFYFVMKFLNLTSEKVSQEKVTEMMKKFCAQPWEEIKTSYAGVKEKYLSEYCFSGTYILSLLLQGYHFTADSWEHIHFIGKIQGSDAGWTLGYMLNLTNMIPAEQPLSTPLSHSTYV
Experiment: BLI (ForteBio); IgG, monovalent

Kd: 29.6 nM
B1: Clone #5 (antibody, V domains shown)
VH: not shown
VL: DIQMTQSPSSLSASVGDRVTITCQASQDISNYLNWYQQKPGKAPKLLIYDASNLATGVPSRFSGSGSGTDFTFTISSLQPEDIATYYCQQLYHLPITFGGGTKVEIK
